Assay results reported in the supplement of paper PMC4967469.

What was measured:
Test in all cases: Viability of human cancer cell lines after 72 h of drug (GDSC screen)
VX-702 = compound: NC(=O)c1ccc(N(C(N)=O)c2c(F)cccc2F)nc1-c1ccc(F)cc1F [VX-702]; conditions: top dose 2 µM; top dose inferred
Protocol: (§1)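 Human cancer cell lines in 384-well plates, medium with 10% serum, drug for 72 h over a 256-fold dose range (nine 2-fold or five 4-fold steps up to the top dose). Adherent lines were fixed and stained with the nucleic acid dye Syto60, suspension lines read with resazurin; signal relative to control wells, capped at 0 and 100%. One two-parameter sigmoid per drug and line, fitted in a mixed model over all curves with the slope shared within a line.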

Shikonin = compound: CC(C)=CC[C@@H](O)C1=CC(=O)c2c(O)ccc(O)c2C1=O [Shikonin]; conditions: top dose 16 µM; top dose inferred
Protocol: as §1

HG-5-113-01 = compound: CNC(=O)c1ccc(Nc2cc(Nc3ccccc3S(=O)(=O)C(C)C)c3cc[nH]c3n2)nc1 [HG-5-113-01]; conditions: top dose 10 µM; top dose inferred
Protocol: as §1

CGP-082996 (CINK4) = compound: CCNc1cc(NC2CCC(O)CC2)nc(Nc2ccc3c(ccn3Cc3ccccc3)c2)n1 [CGP-082996 (CINK4)]; conditions: top dose 5.12 µM; top dose inferred
Protocol: as §1

A-770041 = compound: COc1cc(-c2nn([C@H]3CC[C@H](N4CCN(C(C)=O)CC4)CC3)c3ncnc(N)c23)ccc1NC(=O)c1cc2ccccc2n1C [A-770041]; conditions: top dose 5.12 µM; top dose inferred
Protocol: as §1

SB-525334 = compound: Cc1cccc(-c2[nH]c(C(C)(C)C)nc2-c2ccc3nccnc3c2)n1 [SB-525334]; conditions: top dose 20 µM; top dose inferred
Protocol: as §1

Olaparib = compound: O=C(c1cc(Cc2n[nH]c(=O)c3ccccc23)ccc1F)N1CCN(C(=O)C2CC2)CC1 [Olaparib]
Protocol: as §1

BMS-536924 = compound: Cc1cc(N2CCOCC2)cc2[nH]c(-c3c(NC[C@@H](O)c4cccc(Cl)c4)cc[nH]c3=O)nc12 [BMS-536924]
Protocol: as §1

Wee1 inhibitor 681640 = compound: O=C1NC(=O)c2c1c(-c1ccccc1Cl)cc1[nH]c3ccc(O)cc3c21 [Wee1 inhibitor 681640]; conditions: top dose 2 µM; top dose inferred
Protocol: as §1

XMD8-85 = compound: COc1cc(N2CCN(C)CC2)ccc1Nc1ncc2c(n1)N(C)c1ccccc1C(=O)N2C [XMD8-85]; conditions: top dose 8 µM; top dose inferred
Protocol: as §1

BIRB 0796 = compound: Cc1ccc(-n2nc(C(C)(C)C)cc2NC(=O)Nc2ccc(OCCN3CCOCC3)c3ccccc23)cc1 [BIRB 0796]; conditions: top dose 10 µM; top dose inferred
Protocol: as §1

[1] = top dose 5 µM, screen: GDSC drug entry 1017, top dose inferred
[2] = top dose 10 µM, screen: GDSC drug entry 1495
[3] = top dose 4 µM, screen: GDSC drug entry 1091, top dose inferred
[4] = top dose 5.12 µM, screen: GDSC drug entry 62

Cell Line	AUC (VX-702)	IC50 (VX-702)	AUC (Shikonin)	IC50 (Shikonin)	AUC (HG-5-113-01)	IC50 (HG-5-113-01)	AUC (CGP-082996 (CINK4))	IC50 (CGP-082996 (CINK4))	AUC (A-770041)	IC50 (A-770041)	AUC (SB-525334)	IC50 (SB-525334)	AUC (Olaparib; [1])	IC50 (Olaparib; [1])	AUC (Olaparib; [2])	IC50 (Olaparib; [2])	AUC (BMS-536924; [3])	IC50 (BMS-536924; [3])	AUC (BMS-536924; [4])	IC50 (BMS-536924; [4])	AUC (Wee1 inhibitor 681640)	IC50 (Wee1 inhibitor 681640)	AUC (XMD8-85)	IC50 (XMD8-85)	AUC (BIRB 0796)	IC50 (BIRB 0796)
KURAMOCHI (ovary, adherent)	0.984	> 2 µM	0.657	2.93 µM	0.866	> 10 µM	0.859	> 5.12 µM	0.634	0.797 µM	0.973	> 20 µM	0.984	> 5 µM	0.946	> 10 µM	0.913	> 4 µM	0.846	4.63 µM	0.982	> 2 µM	0.948	> 8 µM	0.914	> 10 µM
L-428 (Hodgkin lymphoma, suspension)	0.988	> 2 µM	0.508	1.05 µM	0.901	> 10 µM	0.966	> 5.12 µM	0.959	> 5.12 µM	0.979	> 20 µM	0.989	> 5 µM	0.992	> 10 µM	0.992	> 4 µM	0.938	> 5.12 µM	0.987	> 2 µM	0.985	> 8 µM	0.993	> 10 µM
LAN-6 (neuroblastoma, adherent)	0.985	> 2 µM	0.677	3.44 µM	0.874	> 10 µM	0.966	> 5.12 µM	0.949	> 5.12 µM	0.874	> 20 µM	0.985	> 5 µM	0.957	> 10 µM	0.835	3.34 µM	0.431	0.2 µM	0.968	> 2 µM	0.877	> 8 µM	0.969	> 10 µM
LB373-MEL-D (melanoma, adherent)	0.99	> 2 µM	0.613	2.03 µM	0.894	> 10 µM	0.952	> 5.12 µM	0.907	> 5.12 µM	0.971	> 20 µM	0.982	> 5 µM	0.983	> 10 µM	0.971	> 4 µM	0.89	> 5.12 µM	0.99	> 2 µM	0.967	> 8 µM	0.969	> 10 µM
LB771-HNC (head and neck, adherent)	0.982	> 2 µM	0.748	6.3 µM	0.77	4.75 µM	0.953	> 5.12 µM	0.849	> 5.12 µM	0.957	> 20 µM	0.976	> 5 µM	0.949	> 10 µM	0.703	1.09 µM	0.46	0.243 µM	0.925	> 2 µM	0.889	> 8 µM	0.969	> 10 µM
LB831-BLC (bladder, adherent)	0.982	> 2 µM	0.535	1.25 µM	0.843	7.24 µM	0.904	> 5.12 µM	0.597		0.965	> 20 µM	0.987	> 5 µM	0.953	> 10 µM	0.929	> 4 µM	0.732	1.49 µM	0.957	> 2 µM	0.927	> 8 µM	0.922	> 10 µM
LB2518-MEL (melanoma, adherent)	0.965	> 2 µM	0.661	2.88 µM	0.893	> 10 µM	0.944	> 5.12 µM	0.96	> 5.12 µM	0.92	> 20 µM	0.983	> 5 µM	0.972	> 10 µM	0.943	> 4 µM	0.857	4.51 µM	0.941	> 2 µM	0.889	> 8 µM	0.987	> 10 µM
LP-1 (myeloma, suspension)	0.993	> 2 µM	0.423	0.639 µM	0.85	5.67 µM	0.955	> 5.12 µM	0.765	1.58 µM	0.974	> 20 µM	0.989	> 5 µM	0.992	> 10 µM	0.918	> 4 µM	0.941	> 5.12 µM	0.989	> 2 µM	0.936	> 8 µM	0.993	> 10 µM
LS-513 (large intestine, adherent)	0.976	> 2 µM	0.632	2.35 µM	0.818	5.94 µM	0.987	> 5.12 µM	0.969	> 5.12 µM	0.893	> 20 µM	0.984	> 5 µM	0.982	> 10 µM	0.893	> 4 µM	0.825	3.24 µM	0.986	> 2 µM	0.823	4.97 µM	0.981	> 10 µM
LS-1034 (large intestine, adherent)	0.969	> 2 µM	0.603	1.98 µM	0.915	> 10 µM	0.913	> 5.12 µM	0.903	> 5.12 µM	0.837	15.4 µM	0.978	> 5 µM	0.985	> 10 µM	0.83	2.87 µM	0.601	0.623 µM	0.98	> 2 µM	0.918	> 8 µM	0.985	> 10 µM

The IC50 comes from the fitted curve, where viability falls to half of the control; a fit beyond the top or the lowest dose is shown as a bound at that dose. AUC, from the same fit, is the share of area under the viability curve across the 256-fold dose range; it is 1 without any effect and falls as sensitivity rises. A top dose marked as inferred comes from the curve model; the source does not state it. For some of these results: Where an entry number is given, a second screen of the drug exists; the two often differ.
